Measured values from PubChem BioAssay AID463173 (ICCB-Longwood Screening Facility, Harvard Medical School, 2010).
The whole screen tested about 52,000 compounds, of which about 4,300 (8.3%) were called active. Cut-off read from the data, not from the text of the source: active = survival mostly below about 52% (no sharp cut-off); inactive = mostly above about 56%. This is one part of the list.

test system: DeltatarO mutant; assay: growth inhibition of S. aureus wild type versus tarO mutant, primary screen, teichoic acid synthesis inhibitors, RN4220, OD600 (AID 463173); conditions: OD600, 18 h, hits give low values, screened at 18.75 µg/mL (by protocol)

**Q.** For `CCOC(=O)c1c(C)[nH]c(C)c1S(=O)(=O)N(C)CC(=O)N1CCN(c2ccccc2)CC1`, which survival is on record?
**A.** The survival was inactive: 65%.

**Q.** `COc1ccccc1NC(=O)c1c(NCc2ccc(OC)c(OC)c2OC)sc2c1CCC2` was tested. Which survival did it give?
**A.** The survival was inactive: 82%.

**Q.** Which survival does the source give for `Cc1ccc(CN(C(=O)COc2ccc([N+](=O)[O-])cc2)c2ccccn2)cc1` here?
**A.** The survival was inactive: 49%.

**Q.** With `CCN(CC)CCCNC(=O)c1cn(C)c2ccc(S(=O)(=O)N(C)C3CCCCC3)cc2c1=O` as the compound, how does the survival read?
**A.** Its survival is inactive: 129%.

**Q.** For `CCN(CC)CCCNC(=O)c1cnc(SC)nc1-c1ccccc1`, which survival is on record?
**A.** The survival was inactive: 69%.

**Q.** For `CN1CCN(C(=O)c2ccc(-c3ccccc3)cc2)CC1`, which survival is on record?
**A.** Its survival is inactive: 83%.

**Q.** How did the survival turn out when `Cc1ccc2c(=O)cc(C(=O)Nc3nc4ccc(Cl)cc4s3)oc2c1C` was run?
**A.** The survival was active: 39%.

**Q.** For `CCOCCc1nn2c(=O)cc(COC(=O)CNC(=O)c3cccc(C)c3)nc2s1`, which survival is on record?
**A.** Its survival is inactive: 70%.

**Q.** Which survival does the source give for `O=C(COc1ccc(Cl)cc1)Nc1nnc(S(=O)(=O)N2CCc3ccccc32)s1` here?
**A.** Its survival is active: 6%.

**Q.** Which survival does the source give for `COc1cccc(-c2ncnn2-c2sc3c(c2C#N)CCCCC3)c1OC` here?
**A.** The survival was inactive: 86%.

**Q.** `CCN(C(=O)CSc1nc2ncccc2[nH]1)c1ccc(C(C)C)cc1` was tested. Which survival did it give?
**A.** Its survival is active: 43%.

**Q.** How did the survival turn out when `CC(C)(C)OC(=O)N1CCC(c2c(C(=O)NCCN3CCc4ccccc4C3)cnn2-c2ccc(F)cc2F)CC1` was run?
**A.** The survival was inactive: 70%.

**Q.** Which survival does the source give for `Cc1ccc(CN2CCC(CNC(=O)Nc3ccc(Cl)cc3)C2)cc1` (stereo not given) here?
**A.** Its survival is inactive: 60%.

**Q.** How did the survival turn out when `CCC(=O)N1CCc2cc(Br)cc(S(=O)(=O)CCC(=O)NCCc3cccc(C)c3)c21` was run?
**A.** Its survival is inactive: 63%.

**Q.** How did the survival turn out when `Cc1ccc(NC(=O)CCn2c(=O)c3cccn3c3ccccc32)cc1C` was run?
**A.** Its survival is active: 46%.

**Q.** `Cc1ccc(-n2c(=O)c3cccnc3n2CC(=O)Nc2ccc(Br)cc2)cc1C` was tested. Which survival did it give?
**A.** The survival was inactive: 40%.

**Q.** Which survival does the source give for `Cc1cc(Cl)ccc1OCc1nc(-c2ccc(-n3cccc3)cc2)no1` here?
**A.** Its survival is inactive: 162%.

**Q.** With `COC(=O)C1=C(C)OC(N)=C(C#N)C1c1ccco1` (stereo not given) as the compound, how does the survival read?
**A.** The survival was inactive: 93%.

**Q.** `CCCCOC(=O)c1ccc(NC(=O)c2cc3c(=O)n4cccc(C)c4nc3s2)cc1` was tested. Which survival did it give?
**A.** The survival was inactive: 66%.

**Q.** With `CCOc1ccc(N2CC(c3nc4ccccc4n3CCCOc3ccccc3)CC2=O)cc1` (stereo not given) as the compound, how does the survival read?
**A.** Its survival is inactive: 51%.

**Q.** With `Cc1c(C(=O)NCC(c2ccc(Cl)cc2)N2CCOCC2)oc2ccccc12` (stereo not given) as the compound, how does the survival read?
**A.** The survival was inactive: 72%.

**Q.** Which survival does the source give for `CCCNC(=O)CCc1nnc2ccc(N3CCN(c4cccc(OC)c4)CC3)nn12` here?
**A.** Its survival is inactive: 98%.

**Q.** With `CCCCN(C)CCNC(=O)c1c2c(nc3ccccc13)C(=O)N(C1CCCCC1)C2` as the compound, how does the survival read?
**A.** Its survival is inactive: 102%.

**Q.** With `COc1ccccc1N1CCN(C(=O)c2nc(SC)ncc2Cl)CC1` as the compound, how does the survival read?
**A.** Its survival is inactive: 85%.

**Q.** With `COc1ccc(C)cc1NC(=O)CCS(=O)(=O)c1cc2c3c(c1)CCN3C(=O)CC2` as the compound, how does the survival read?
**A.** Its survival is inactive: 85%.
